Source: the supplement of paper PMC11876631
Residue numbers refer to the chain shown, from its start. Names and notes keep the numbering of the source. ± gives the standard deviation of the averaged measurements. Laboratory Escherichia coli strains with one amino-acid change in an essential protein, pooled on minimal glucose agar with carbenicillin or gentamicin at twice the control MIC (plus kanamycin and chloramphenicol for the plasmids), 48 h. Fold change of barcode share against drug-free plates; higher = less susceptible. Active = above 20 in both replicates (the paper's putatively resistant). '<' = one read or none on drug, '>' = one read or none on a drug-free plate. Shares are relative, so most strains fall below 1 when a few take over. Listed are strains with at least 15 reads on both drug-free plates, and hits; most hits rest on fewer reference reads. Replicate rank correlation about 0.5. Edits are read from barcodes.

B1: purA F328Q (protein)
chain: MGNNVVVLGTQWGDEGKGKIVDLLTERAKYVVRYQGGHNAGHTLVINGEKTVLHLIPSGILRENVTSIIGNGVVLSPAALMKEMKELEDRGIPVRERLLLSEACPLILDYHVALDNAREKARGAKAIGTTGRGIGPAYEDKVARRGLRVGDLFDKETFAEKLKEVMEYHNFQLVNYYKAEAVDYQKVLDDTMAVADILTSMVVDVSDLLDQARQRGDFVMFEGAQGTLLDIDHGTYPYVTSSNTTAGGVATGSGLGPRYVDYVLGILKAYSTRVGAGPFPTELFDETGEFLCKQGNEFGATTGRRRRTGWLDTVAVRRAVQLNSLSGQCLTKLDVLDGLKEVKLCVAYRMPDGREVTTTPLAADDWKGVEPIYETMPGWSESTFGVKDRSGLPQAALNYIKRIEELTGVPIDIISTGPDRTETMILRDPFDA
B2: purA L75P (protein)
chain: B1 chain with L75P, Q328F
B3: purA L75D (protein)
chain: B1 chain with L75D, Q328F
B4: purA F328P (protein)
chain: B1 chain with Q328P
B5: purA L75A (protein)
chain: B1 chain with L75A, Q328F
B6: purA L75Q (protein)
chain: B1 chain with L75Q, Q328F
B7: purA L75W (protein)
chain: B1 chain with L75W, Q328F
B8: purD V335A (protein)
chain: MKVLVIGNGGREHALAWKAAQSPLVETVFVAPGNAGTALEPALQNVAIGVTDIPALLDFAQNEKIDLTIVGPEAPLVKGVVDTFRAAGLKIFGPTAGAAQLEGSKAFTKDFLARHKIPTAEYQNFTEVEPALAYLREKGAPIVIKADGLAAGKGVIVAMTLEEAEAAVHDMLAGNAFGDAGHRIVIEEFLDGEEASFIVMVDGEHVLPMATSQDHKRVGDKDTGPNTGGMGAYSPAPVVTDDVHQRTMERIIWPTVKGMAAEGNTYTGFLYAGLMIDKQGNPKVIEFNCRFGDPETQPIMLRMKSDLVELCLAACESKLDEKTSEWDERASLGVAMAAGGYPGDYRTGDVIHGLPLEEVAGGKVFHAGTKLADDEQVVTNGGRVLCVTALGHTVAEAQKRAYALMTDIHWDDCFCRKDIGWRAIEREQN
B9: purD V335D (protein)
chain: B8 chain with A335D
B10: purD V335Q (protein)
chain: B8 chain with A335Q
B11: purD V30A (protein)
chain: B8 chain with V30A, A335V
B12: purD V335P (protein)
chain: B8 chain with A335P

What follows are proteins tested against Escherichia coli (laboratory strain) (assay: barcode share on antibiotic plates over drug-free plates; higher = less susceptible). Conditions: antibiotic: carbenicillin; 2× MIC (3.1 µg/mL).
Description: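 A pool of E. coli strains, each edited to carry one amino-acid change in an essential protein, was grown for 48 h on minimal glucose agar with or without antibiotic; strain barcodes were sequenced; mean of two replicates.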
With B1 the “fold change of barcode share” value was 0.399 ± 0.0066.
With B2 the “fold change of barcode share” value was 0.655 ± 0.012.
With B3 the “fold change of barcode share” value was 140 [active].
B4 was tested, and the “fold change of barcode share” value was > 37.9 [active].
With B5 the “fold change of barcode share” value was 0.366 ± 0.016.
With B6 the “fold change of barcode share” value was 0.493 ± 0.094.
With B7 the “fold change of barcode share” value was 136 [active].
In the case of B8, the “fold change of barcode share” value is reported as 0.945 ± 0.3.
B9 was tested, and the “fold change of barcode share” value was 119 [active].
For B10, the “fold change of barcode share” value was 2.02 ± 0.48.
For B11, the “fold change of barcode share” value was 1.23 ± 0.17.
With B12 the “fold change of barcode share” value was 94 [active].

Same assay, conditions: antibiotic: gentamicin; 2× MIC (MIC 0.45 µg/mL)
For B1, the “fold change of barcode share” value was 0.00551 ± 0.0014.
With B2 the “fold change of barcode share” value was less than 0.00455.
In the case of B5, the “fold change of barcode share” value is reported as 0.128 ± 0.019.
B6 was tested, and the “fold change of barcode share” value was 0.00576 ± 0.0054.
With B8 the “fold change of barcode share” value was 0.00547 ± 0.0042.
With B10 the “fold change of barcode share” value was 0.0249 ± 0.028.
For B11, the “fold change of barcode share” value was 0.0065249 ± 2.6e-07.
